We go through one molecule from article PMC2867956, “Interdomain Interactions Control Ca^2+-Dependent Potentiation in the Cation Channel TRPV4” (PLoS ONE, 2010).

The assay has as its target TRPV4-YFP, Q9HBA0. As to the kind of experiment: FRET or BRET; acceptor photobleaching FRET of CFP- and YFP-fused full-length TRPV4 in unstimulated HEK293 cells; hypotonic medium, 4α-PMA or carbachol lowered the FRET transiently. The following applies: remark: other sources report otherwise. Background: Bioluminescence resonance energy transfer reports proximity on the nanometre scale.

B1: CFP-TRPV4 (natural protein)
chain: MADSSEGPRAGPGEVAELPGDESGTPGGEAFPLSSLANLFEGEDGSLSPSPADASRPAGPGDGRPNLRMKFQGAFRKGVPNPIDLLESTLYESSVVPGPKKAPMDSLFDYGTYRHHSSDNKRWRKKIIEKQPQSPKAPAPQPPPILKV[about 250 residues left out]DTRHLSRKFKDWAYGPVYSSLYDLSSLDTCGEEASVLEILVYNSKIENRHEMLAVEPINELLRDKWRKFGAVSFYINVVSYLCAMVIFTLTAYYQPLEGTPPYPYRTTVDYLRLAGEVITLFTGVLFFFTNIKDLFMKKCPGVNSLFIDGSFQLLYFIYSVLVIVSAALYLAGIEAYLAVMVFALVLGWMNALYFTRGLKLTGTYSIMIQKILFKDLFRFLLVYLLFMIGYASALVSLLNPCANMKVCNEDQTNCTVPTYPSCRDSETFSTFLLDLFKLTIGMGDLEMLSSTKYPVVFIILLVTYIILTFVLLLNMLIALMGETVGQVSKESKHIWKLQWATTILDIERSFPVFLRKAFRSGEMVTVGKSSDGTPDRRWCFRVDEVNWSHWNQNLGIINEDPGKNETYQYYGFSHTVGRLRRDRWSSVVPRVVELNKNSNPDEVVVPLDSMGNPRCDGHQQGYPRKWRTDDAPL
Molecule B1 showed an FRET efficiency of 19.6.
